Laboratory results taken from paper PMC5892938.
Some of the results follow. At the low end of the ranking, values are background and their order means little.

Molecular target: GST-SBP-SLBP (stem-loop binding protein) (UniProt Q14493)
Experiment: targeted RNA Bind-n-Seq;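 further: DESeq read counts versus GST-SBP nonspecific binding control pulldown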
Settings: RBNS binding buffer: 25 mM Tris pH 7.5, 150 mM KCl, 3 mM MgCl2, 0.1% Tween, 0.5 mg/mL BSA, 1 mM DTT; 27 nM protein, 750 pM RNA pool; temperature not stated; high values mean tight binding

Row | Sequence | binding signal (log2 fold change)
1 | GGUCACGUCUCAAUCAACUCCACAGAGGGGGGGAAAACCCCUUUGCCCUCCACAUCAACAGCUCGCAGUCAAG | -0.247
2 | GGUCACGUCUCAAUCAACUCUUUCUCCAGGGAAAGCCCUGGUUAUGUCAACAGCUCGCAGUCAAG | -0.127
3 | GGUCACGUCUCAAUCAACUCUUUUCCAGGAGUUUCCUCCUGCAAAUUCAACAGCUCGCAGUCAAG | -0.0502
4 | GGUCACGUCUCAAUCAACUCAGUUUCCAGGGAAAACCCUGGUUUUUUCAACAGCUCGCAGUCAAG | 0.201
5 | GGUCACGUCUCAAUCAACUCAUCCUCCAGGGAAAGCCCUGGUUUUCUCAACAGCUCGCAGUCAAG | 0.251
6 | GGUCACGUCUCAAUCAACUCAAAGGAGGGGGGGAAAACCCCUUUACCCUCAAUCUCAACAGCUCGCAGUCAAG | 0.116
7 | GGUCACGUCUCAAUCAACUCAUCCCCAGGAGUUUCCUCCUGUUUAUUCAACAGCUCGCAGUCAAG | 0.0825
8 | GGUCACGUCUCAAUCAACUCAUCUUCCAGGGAAAGCCCUGGUUAACUCAACAGCUCGCAGUCAAG | -0.0611
9 | GGUCACGUCUCAAUCAACUCAAUCUCAGGAGUUUUCUCCUGUAAACUCAACAGCUCGCAGUCAAG | 0.0446
10 | GGUCACGUCUCAAUCAACUCAUCAGAGGGGGGGAAAACCCCUUUACCCUCAUUUUCAACAGCUCGCAGUCAAG | -0.257
11 | GGUCACGUCUCAAUCAACUCUUCGUCCAGGGAAAACCCUGGUUUUUUCAACAGCUCGCAGUCAAG | -0.073
12 | GGUCACGUCUCAAUCAACUCUUUUCCCAGGGAAAACCCUGGCUUUUUCAACAGCUCGCAGUCAAG | -0.221
13 | GGUCACGUCUCAAUCAACUCUCUAGAGGGGGGGAAAACCCCUUUGCCCUCCUAAUCAACAGCUCGCAGUCAAG | 0.118
14 | GGUCACGUCUCAAUCAACUCUUUUUCCAGGGAAAUCCCUGGCUAUUUCAACAGCUCGCAGUCAAG | -0.0451
15 | GGUCACGUCUCAAUCAACUCAACUUCCAGGGAAAUCCCUGGUAAAUUCAACAGCUCGCAGUCAAG | -0.226
16 | GGUCACGUCUCAAUCAACUCAUCUCCCAGGGAAAUCCCUGGCAAAUUCAACAGCUCGCAGUCAAG | -0.106
17 | GGUCACGUCUCAAUCAACUCUUCCCCAGGAGUUUCCUCCUGCAUAUUCAACAGCUCGCAGUCAAG | 0.014
18 | GGUCACGUCUCAAUCAACUCCUCGGAGGGGGGGAAAACCCCUUUACCCUCAUCAUCAACAGCUCGCAGUCAAG | -0.0537
19 | GGUCACGUCUCAAUCAACUCACUAGAGGGGGGGAAAACCCCUUUGCCCUCACUAUCAACAGCUCGCAGUCAAG | -0.0982
20 | GGUCACGUCUCAAUCAACUCAUCUUCAGGAGUUUUCUCCUGCAAUUUCAACAGCUCGCAGUCAAG | 0.141
